The supplement of paper PMC3334620
Whole data set: some 33,000 sequences, median “E-score (-0.5 to 0.5)” near -0.054, cut for the highest 2% near 0.39. This is one part of the list.

Each sequence was assayed against Ylr278c (UniProt Q05854) (assay: PBM E-score (8-mer binding enrichment) (E-score (-0.5 to 0.5)); higher = stronger / more preferred TF binding; most listed sequences are background and not binding sites). Conditions: protein concentration: 200 nM; construct: GST-DNA-binding domain.
Summary of the method: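 E-scores (a modified Wilcoxon-Mann-Whitney statistic) were assigned by the Universal PBM Analysis Suite to every ungapped eight-base word pooled with its reverse complement. The input came from universal all-10-mer Agilent arrays made double-stranded by primer extension and probed with GST-tagged yeast transcription factors at about 100-200 nM. Fluorescent anti-GST detected bound protein, and masliner normalised the scans.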
For AGCCGCAG, the “PBM E-score” value was -0.00466. AGGTTAAA was tested, and the “PBM E-score” value was -0.142. In the case of CGAGGGCG, the “PBM E-score” value is reported as 0.159. ACACAGAC was tested, and the “PBM E-score” value was -0.0906. In the case of ATATATGG, the “PBM E-score” value is reported as -0.0699. With ACCATATC the “PBM E-score” value was -0.0317. For CAGCTTGA, the “PBM E-score” value was -0.0487. AGTCTAAG was tested, and the “PBM E-score” value was 0.0345. AGTACATA was tested, and the “PBM E-score” value was 0.00559. With GCAGTTCC the “PBM E-score” value was 0.169. ATTCTCAA was tested, and the “PBM E-score” value was -0.137. With CCTCGTCA the “PBM E-score” value was -0.0218. For ACTCAGTG, the “PBM E-score” value was -0.283. For CTAGTTGA, the “PBM E-score” value was -0.115. In the case of CCCTGTAA, the “PBM E-score” value is reported as 0.00487. With AAAAAGCT the “PBM E-score” value was -0.198. For CTCACTAC, the “PBM E-score” value was -0.0966. For AATTAGAG, the “PBM E-score” value was -0.114. With GGCCGACC the “PBM E-score” value was 0.183. With TATGCAAA the “PBM E-score” value was -0.281. With AAATGCTA the “PBM E-score” value was -0.0122. With AGAATATA the “PBM E-score” value was -0.128. For AACGGGCA, the “PBM E-score” value was -0.0928. In the case of AATGCATC, the “PBM E-score” value is reported as -0.189. In the case of ACGATTCA, the “PBM E-score” value is reported as -0.129. In the case of AGGGTAAT, the “PBM E-score” value is reported as -0.0218. CGCTCCCC was tested, and the “PBM E-score” value was -0.0655. In the case of TCCTCAAA, the “PBM E-score” value is reported as -0.165. In the case of GATTGGAA, the “PBM E-score” value is reported as -0.0736. AAGTCATA was tested, and the “PBM E-score” value was -0.123. GATACTAA was tested, and the “PBM E-score” value was 0.201. With AGAGGGGA the “PBM E-score” value was -0.126. With GTCTCACA the “PBM E-score” value was -0.173. For AACCGGCG, the “PBM E-score” value was 0.361. For GCAACCGC, the “PBM E-score” value was -0.0395. In the case of ATGGAAAG, the “PBM E-score” value is reported as -0.0576. ACGCAAGA was tested, and the “PBM E-score” value was -0.152. ACAGGTTG was tested, and the “PBM E-score” value was -0.226. CCGTTTCA was tested, and the “PBM E-score” value was 0.134. CCACGCTA was tested, and the “PBM E-score” value was -0.252. For CAGTGTCA, the “PBM E-score” value was -0.162. In the case of CTCTACGA, the “PBM E-score” value is reported as -0.355. With TACATAGA the “PBM E-score” value was -0.173. AGCCTCCG was tested, and the “PBM E-score” value was 0.381. In the case of GAAACACA, the “PBM E-score” value is reported as 0.039. For GACCCATC, the “PBM E-score” value was 0.0825. For CGCGGAAA, the “PBM E-score” value was 0.378. With CAGCGACA the “PBM E-score” value was -0.212. In the case of CTGCTGCA, the “PBM E-score” value is reported as -0.153. With CGCAGAAC the “PBM E-score” value was 0.00027. For CATTTCGG, the “PBM E-score” value was 0.226. With ACGGATAA the “PBM E-score” value was 0.293. With CCACTTCC the “PBM E-score” value was 0.0941. With AGTTTGAC the “PBM E-score” value was -0.0378. With ATCAAGAC the “PBM E-score” value was -0.00757. With AGTCCTGG the “PBM E-score” value was -0.203. With AACTTTGA the “PBM E-score” value was -0.129. In the case of AGGAAAGA, the “PBM E-score” value is reported as -0.261. With ACCCGTCG the “PBM E-score” value was -0.0266. With CGCATCTC the “PBM E-score” value was 0.124. AGCACTCG was tested, and the “PBM E-score” value was 0.0828. CAAAGATG was tested, and the “PBM E-score” value was -0.0597. For TCCTCGCA, the “PBM E-score” value was 0.0362. CCATCCTC was tested, and the “PBM E-score” value was 0.145. CCGTCCAG was tested, and the “PBM E-score” value was 0.0496. In the case of TAACGCAA, the “PBM E-score” value is reported as -0.0984. CCGCGTAG was tested, and the “PBM E-score” value was 0.166. In the case of GCTAAGCC, the “PBM E-score” value is reported as 0.0306. In the case of GTGCCATA, the “PBM E-score” value is reported as -0.319. For GATGATGC, the “PBM E-score” value was -0.14. For GGATACTA, the “PBM E-score” value was 0.0919. With ACACAGGC the “PBM E-score” value was -0.209. In the case of GAACGTTA, the “PBM E-score” value is reported as 0.0074. With AAGAGTGG the “PBM E-score” value was -0.121. In the case of GATCCCCC, the “PBM E-score” value is reported as -0.0852. With GGAACCAA the “PBM E-score” value was 0.0593. CACGGTAA was tested, and the “PBM E-score” value was 0.106. For GGTCTAGA, the “PBM E-score” value was -0.27. With CATTACGG the “PBM E-score” value was -0.00182. In the case of GCGCATAC, the “PBM E-score” value is reported as 0.0687. For CTCCCCAA, the “PBM E-score” value was 0.108. AATTATTA was tested, and the “PBM E-score” value was 0.0546. In the case of CTCCTCAA, the “PBM E-score” value is reported as -0.0756. For CGCTAGCC, the “PBM E-score” value was -0.0385. With GTTCCCAA the “PBM E-score” value was -0.109. CCGATATA was tested, and the “PBM E-score” value was 0.304. ACGTCTAA was tested, and the “PBM E-score” value was -0.136. With CCTTTTCG the “PBM E-score” value was 0.0881. For ATCTAAAG, the “PBM E-score” value was -0.122. For CCGTTCAG, the “PBM E-score” value was 0.132. For AGTTGCCG, the “PBM E-score” value was 0.171. In the case of CTTAGGCC, the “PBM E-score” value is reported as -0.018. With CGCAACAC the “PBM E-score” value was 0.111. In the case of GCGCAACC, the “PBM E-score” value is reported as 0.0421. With CACATGTA the “PBM E-score” value was -0.11. CCCAGTTA was tested, and the “PBM E-score” value was -0.124. ACCGCCCG was tested, and the “PBM E-score” value was 0.313. CTGTATTA was tested, and the “PBM E-score” value was -0.141. For AGTCTCAT, the “PBM E-score” value was -0.0897. CGTTGGTA was tested, and the “PBM E-score” value was 0.126. GACTTTGA was tested, and the “PBM E-score” value was -0.12. With CCCAGTGA the “PBM E-score” value was -0.162. ATAATATC was tested, and the “PBM E-score” value was -0.0834. AAGTCGGG was tested, and the “PBM E-score” value was 0.16. For CTCGACAC, the “PBM E-score” value was -0.131. With CTAGGGAA the “PBM E-score” value was -0.0217. For CTATTGGA, the “PBM E-score” value was 0.00078. In the case of CCGTAGGC, the “PBM E-score” value is reported as 0.0321. GACAGCCC was tested, and the “PBM E-score” value was 0.0122. With ACATGCAC the “PBM E-score” value was -0.183.
